SMILES strings stand for the structures. Out of some 110,000 compounds screened, about 230 (0.21%) showed an effect of 50% or more. The list shows a part of the results.
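Note: 30 min substrate incubation versus DMSO and 10 µM JCP410 controls.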

DPAP1, sequence (Q8IIJ9 whole entry, looked up): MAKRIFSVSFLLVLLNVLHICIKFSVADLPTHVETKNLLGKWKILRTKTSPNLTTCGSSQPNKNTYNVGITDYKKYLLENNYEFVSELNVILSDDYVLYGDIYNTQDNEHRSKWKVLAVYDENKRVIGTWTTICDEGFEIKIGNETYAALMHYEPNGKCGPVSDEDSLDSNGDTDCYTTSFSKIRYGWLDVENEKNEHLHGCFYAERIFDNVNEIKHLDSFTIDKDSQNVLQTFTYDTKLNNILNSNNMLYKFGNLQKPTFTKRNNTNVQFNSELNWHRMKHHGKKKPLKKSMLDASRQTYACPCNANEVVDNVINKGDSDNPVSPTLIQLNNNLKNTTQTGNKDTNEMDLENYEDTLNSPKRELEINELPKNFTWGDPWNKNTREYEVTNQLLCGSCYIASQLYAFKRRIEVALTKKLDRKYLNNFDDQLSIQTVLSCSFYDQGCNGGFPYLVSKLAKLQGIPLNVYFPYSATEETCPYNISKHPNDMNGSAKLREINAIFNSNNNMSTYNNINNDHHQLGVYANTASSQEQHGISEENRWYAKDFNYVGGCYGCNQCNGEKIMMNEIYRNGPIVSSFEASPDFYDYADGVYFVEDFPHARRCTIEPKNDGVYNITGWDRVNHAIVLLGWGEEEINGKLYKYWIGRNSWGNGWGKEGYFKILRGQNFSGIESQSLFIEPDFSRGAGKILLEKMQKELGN

The test concerns the target DPAP1 (Plasmodium falciparum, UniProt Q8IIJ9). The experiment in a line: primary screen, percent inhibition; read by cleavage of a fluorogenic dipeptide substrate; higher = more effect of the substance. Set-up: species or system P. falciparum D10 trophozoite lysates; single well.
On to `CCCSc1nnc(NC(=O)c2nc(SC)ncc2Cl)s1`, for which the “% Inhibition @ 10 uM” value turned out to be 0.569%. Then `O=C(COc1ccccc1)N1CCN(C(=O)COc2ccccc2)CC1`, with -2.3%. `CCc1ccc(N2C(=O)c3ccccc3NC2(C)C)cc1`: the “% Inhibition @ 10 uM” value is 1.27%. The result for `CCOc1ccc(CN2CCN(C/C=C/c3ccccc3)CC2)cc1` reads -3.13%; that for `COC(=O)c1sccc1NC(=O)COc1nsnc1N1CCOCC1`, -2.19%.

Consider `COCCNC(=O)c1cc2c(Cl)ccc3c2n1CCO3`, for which the “% Inhibition @ 10 uM” value is -5.16%. For `O=C(Nc1ccccc1)Nc1ccc(S(=O)(=O)Nc2ccc(Br)cc2)cc1`, the “% Inhibition @ 10 uM” value worked out at 2.82%.

For the compound `Cc1nc(N2C(=O)C(O)=C(C(=O)c3ccccc3)C2c2cccs2)sc1C` (stereo not drawn), the “% Inhibition @ 10 uM” value is given as -2.6%.

`COc1ccc(/C=C2/SC(=O)N(CC(=O)Nc3cccc4ccccc34)C2=O)cc1O`: the “% Inhibition @ 10 uM” value is recorded as 1.49%. Turning to `N#Cc1cc(-c2nc3ccccc3[nH]2)c(N)n2c1nc1ccccc12`, the “% Inhibition @ 10 uM” value is recorded as -3.5%. Then `Cn1c(Nc2cccc(F)c2)cc(=O)n(C)c1=O`, with -4.93%; and `COc1ccc(Cl)cc1-n1nnc(C(=O)O)c1C(=O)O`, with -1.58%.

For `O=C(c1ccccc1)N1CCN=C1c1ccccc1`, the “% Inhibition @ 10 uM” value was determined as 4.32%. The result for `COc1ccc(C2C(C(=O)Nc3cccnc3)=C(C)Nc3nc(-c4cccs4)nn32)cc1` (stereo not drawn) reads 5.37%; that for `N#Cc1cc2c(nc1S(=O)(=O)Cc1ccc(Cl)cc1)CCCC2`, -3.75%; that for `Cc1nnc(N2CCC(C(=O)NCC3CCCO3)CC2)c2nn(-c3ccccc3)c(C)c12` (stereo not drawn), 1.63%. For `Cc1cc(C2=CC(C)(C)NC(C)(C)C2)sc1C1=CC(C)(C)NC(C)(C)C1`, the “% Inhibition @ 10 uM” value is given as -2.18%. Then `CC(=O)NC1(C(F)(F)F)C(=O)Nc2c1c(=O)[nH]c(=O)n2-c1ccccc1` (stereo not drawn), with 4.49%; and `CNC(=O)C(=O)Nc1cccc(Br)c1`, with -4.01%. The result for `COCCCN1C(=O)S/C(=C/c2sccc2C)C1=O` reads 2.4%. For `Cc1ccc(C(=O)Nc2nc3c(s2)CCCC3)o1`, the “% Inhibition @ 10 uM” value was -11%.

Take `COc1ccc2nc(O)c(CN(C)S(=O)(=O)c3ccc(C)cc3)cc2c1`: the “% Inhibition @ 10 uM” value is on record as -0.671%. The result for `Cc1ccc2c(c1)C(=O)C(CN1CCOCC1)CO2` (stereo not drawn) reads 6.79%; that for `O=C(NCCCO)/C(=C\c1ccc(F)cc1)NC(=O)c1ccco1`, 14%; that for `CN(C)CCCN(C(=O)c1cccs1)c1nc2cc3c(cc2s1)OCO3`, 0.233%. For `CN1C(=O)NC(=O)/C(=C/c2c[nH]c3ccccc23)C1=O`, the “% Inhibition @ 10 uM” value was found to be 4.88%. Consider `CCN1CCN(c2ccc(NC(=O)C3CC3c3ccccc3)cc2)CC1` (stereo not drawn), for which the “% Inhibition @ 10 uM” value came out at 0.774%. Then `COC(=O)c1ccc(Cl)c(-c2ccc(C(=O)N[C@@H](Cc3c(F)cccc3F)C(=O)NC3(C#N)CCOCC3)cc2)c1`, with 19%. Then `COc1cc(NC(=O)c2ccc(Cn3nc(C)c(Cl)c3C)o2)cc(OC)c1`, with -2.87%. The result for `CN(CCC#N)Cc1ccccc1` reads -0.902%. Consider `O=C1N=C(Nc2ccc(Br)cc2)S/C1=C\c1ccc(O)c(O)c1`, for which the “% Inhibition @ 10 uM” value is given as -4.59%. Then `COc1ccc(OC(C)C(=O)Nc2nccs2)cc1` (stereo not drawn), with 2.94%; and `COc1ccc(OC)c2c(C)cc(N3CCN(C(=O)c4ccc(Cl)cc4)CC3)nc12`, with -5.4%; and `COc1ccccc1N(CC(=O)N1CCCCC1)S(=O)(=O)c1ccccc1`, with -7.27%. Then `O=C(c1cc2n(n1)C(C(F)(F)F)CC(c1ccc(Br)cc1)N2)N1CCCC1` (stereo not drawn), with 5.12%; and `O=S(=O)(c1ccccc1)n1ccc2cccnc21`, with -2.8%; and `Oc1ccc(Br)cc1CN1CCc2ccccc2C1`, with 1.26%. Then `Cc1ccccc1NC(=O)c1ccccc1N(C)S(=O)(=O)c1ccccc1`, with -3.09%; and `CCOC(=O)C1=C(CN2CCN(C(=O)c3ccco3)CC2)NC(=O)NC1c1cccs1` (stereo not drawn), with -1.78%; and `Nc1nc(NCc2c(F)cccc2Cl)nn1-c1ccccc1`, with 3.48%.

On to `Cc1ccc(C2Nc3ccccc3N=C3CC(c4ccc5c(c4)OCO5)CC(O)=C32)s1` (stereo not drawn), for which the “% Inhibition @ 10 uM” value is 0.64%.

For `CCN(CC)c1ccc(NC(=O)CC(C)C)cc1`, the “% Inhibition @ 10 uM” value is listed as -0.425%. The result for `c1ccc2c(c1)CCN(Cc1csc3c1CCCC3)C2` reads -4.82%; that for `COc1cc(C2C(C#N)=C(N)Oc3[nH]nc(C45CC6CC(CC(C6)C4)C5)c32)ccc1O` (stereo not drawn), 4.32%.

Consider `COc1ccc2c(c1C)CCC/C2=N\OC(=O)c1cc(OC)c(OC)c(OC)c1`, for which the “% Inhibition @ 10 uM” value turned out to be 3.16%.

As for `O=c1cc(CSCc2ccc(Cl)cc2)nc2sc(-c3ccco3)nn12`, the “% Inhibition @ 10 uM” value is on record as -3.95%. In the case of `COCCCNCc1c(C(=O)O)n(Cc2ccc(C)cc2)c2ccccc12`, the “% Inhibition @ 10 uM” value is on record as 1.93%. Take `O=C(COc1ccc(Cl)cc1Cl)Nc1c2c(nn1-c1ccc(F)cc1)CSC2`: the “% Inhibition @ 10 uM” value is 2.5%.

Consider `COC(=O)c1c(N)sc2c1CCN(C)C2`, for which the “% Inhibition @ 10 uM” value was -4.35%.

In the case of `Cc1cccc(C(=O)Nc2ccc(S(=O)(=O)N3CCOCC3)cc2)c1`, the “% Inhibition @ 10 uM” value was -1.38%. The result for `CC(C)C(=O)Nc1sc2c(c1C#N)CCC(C(C)(C)C)C2` (stereo not drawn) reads -3.26%.

As for `COc1ccc(Cl)cc1NC(=O)CCC1CCCC1`, the “% Inhibition @ 10 uM” value is on record as -3.45%. Then `CC(=O)NC1=NN(C(C)=O)C(c2ccccc2)S1` (stereo not drawn), with -0.736%. Then `CCOc1cccc2cc(-c3cc(=O)oc4cc(OC)ccc34)oc12`, with 2.31%; and `Cc1cc(C)c2c(n1)SCC(=O)N2CCCC(=O)NCCc1ccccc1`, with -0.637%; and `CCc1nc2cc3sc(CC)nc3cc2s1`, with -2.91%. As for `COc1ccc(CCNC(=O)Cn2nc(C)c3sc4ccccc4c3c2=O)cc1OC`, the “% Inhibition @ 10 uM” value was -3.6%. The result for `CSc1nc2ccccc2n1Cc1ccccc1F` reads -3.09%; that for `CCOc1ccc(CNCc2cccnc2)cc1`, -5.56%; that for `Cc1ccc2c(N)c(C(=O)Nc3ccccc3C(F)(F)F)sc2n1`, 0.755%. For the compound `CCCCN(CC)S(=O)(=O)c1ccc2nc(O)cc(C(=O)NCc3ccc(CC)cc3)c2c1`, the “% Inhibition @ 10 uM” value was found to be 2.05%.

Take `Cc1ccc(CNC(=O)Cc2coc3c(C)c(C)ccc23)cc1`: the “% Inhibition @ 10 uM” value is reported as 2.62%. On to `CCOC(=O)c1cc2n(c1/N=C/N(C)C)-c1ccccc1C2=O`, for which the “% Inhibition @ 10 uM” value is on record as 6.86%. Turning to `CC(=O)Nc1ccc(S(=O)(=O)NCc2ccc(F)cc2)cc1`, the “% Inhibition @ 10 uM” value worked out at 0.214%. Then `Cc1ccc(C(C)C)c(OCC(=O)NCCc2nc3ccccc3[nH]2)c1`, with -9.6%; and `O=C(NCc1cccs1)c1cc2cccc3c2n1CCS3`, with -3.29%.

Source of the values: article PMC6919601, “Identification of Plasmodium dipeptidyl aminopeptidase allosteric inhibitors by high throughput screening” (PLoS ONE, 2019).
